In paper PMC8047017, “Acetylated tau inhibits chaperone-mediated autophagy and promotes tau pathology propagation in mice” (Nature Communications, 2021):

Target: T1, human hsc70 (immobilised in the tau binding ELISA) (human, UniProt P11142)
T1 construct: heat shock cognate protein of 70 kDa (hsc70), human; 1 mM ADP was present in the ELISA
Experiment: ELISA; 1 µM human hsc70 immobilised on 96-well plates; tau in binding buffer at pH 8 (25 mM Tris), also pH 6 (MES) and pH 7.4 (HEPES), 1 mM ADP, 3 h at RT; detected with anti-tau
Details: both partners purified

T1 sequence (P11142 whole entry): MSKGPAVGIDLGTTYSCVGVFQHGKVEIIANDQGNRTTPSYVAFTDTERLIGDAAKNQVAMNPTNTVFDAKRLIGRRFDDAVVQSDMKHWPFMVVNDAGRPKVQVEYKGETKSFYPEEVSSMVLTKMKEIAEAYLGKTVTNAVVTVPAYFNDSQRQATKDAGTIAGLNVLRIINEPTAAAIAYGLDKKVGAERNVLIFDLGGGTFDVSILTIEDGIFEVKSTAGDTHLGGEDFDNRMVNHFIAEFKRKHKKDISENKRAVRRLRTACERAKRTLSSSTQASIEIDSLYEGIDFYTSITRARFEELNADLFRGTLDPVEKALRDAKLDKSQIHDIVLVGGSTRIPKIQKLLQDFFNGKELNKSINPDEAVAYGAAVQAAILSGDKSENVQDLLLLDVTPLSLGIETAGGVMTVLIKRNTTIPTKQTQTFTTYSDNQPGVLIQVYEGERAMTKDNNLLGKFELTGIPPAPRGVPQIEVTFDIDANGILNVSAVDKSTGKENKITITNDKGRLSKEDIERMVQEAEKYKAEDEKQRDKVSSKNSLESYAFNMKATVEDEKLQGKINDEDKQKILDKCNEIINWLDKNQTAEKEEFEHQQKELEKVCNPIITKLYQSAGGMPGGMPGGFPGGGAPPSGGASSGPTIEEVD

binding result: binds
B1: 4R0N tau (natural protein)
chain: not shown
notes: also called WT tau; unmodified tau
